These are yes or no findings as the source states them, for the method shown. In cells and extracts the contact can be indirect. Some entries that bind do so weakly or less than the wild type. Sequences can lack the tags named with a protein.

Assay [1] addresses T1, FRQ Δ874–884, V5H6-tagged (Neurospora crassa) (UniProt P19970).
T1 sequence: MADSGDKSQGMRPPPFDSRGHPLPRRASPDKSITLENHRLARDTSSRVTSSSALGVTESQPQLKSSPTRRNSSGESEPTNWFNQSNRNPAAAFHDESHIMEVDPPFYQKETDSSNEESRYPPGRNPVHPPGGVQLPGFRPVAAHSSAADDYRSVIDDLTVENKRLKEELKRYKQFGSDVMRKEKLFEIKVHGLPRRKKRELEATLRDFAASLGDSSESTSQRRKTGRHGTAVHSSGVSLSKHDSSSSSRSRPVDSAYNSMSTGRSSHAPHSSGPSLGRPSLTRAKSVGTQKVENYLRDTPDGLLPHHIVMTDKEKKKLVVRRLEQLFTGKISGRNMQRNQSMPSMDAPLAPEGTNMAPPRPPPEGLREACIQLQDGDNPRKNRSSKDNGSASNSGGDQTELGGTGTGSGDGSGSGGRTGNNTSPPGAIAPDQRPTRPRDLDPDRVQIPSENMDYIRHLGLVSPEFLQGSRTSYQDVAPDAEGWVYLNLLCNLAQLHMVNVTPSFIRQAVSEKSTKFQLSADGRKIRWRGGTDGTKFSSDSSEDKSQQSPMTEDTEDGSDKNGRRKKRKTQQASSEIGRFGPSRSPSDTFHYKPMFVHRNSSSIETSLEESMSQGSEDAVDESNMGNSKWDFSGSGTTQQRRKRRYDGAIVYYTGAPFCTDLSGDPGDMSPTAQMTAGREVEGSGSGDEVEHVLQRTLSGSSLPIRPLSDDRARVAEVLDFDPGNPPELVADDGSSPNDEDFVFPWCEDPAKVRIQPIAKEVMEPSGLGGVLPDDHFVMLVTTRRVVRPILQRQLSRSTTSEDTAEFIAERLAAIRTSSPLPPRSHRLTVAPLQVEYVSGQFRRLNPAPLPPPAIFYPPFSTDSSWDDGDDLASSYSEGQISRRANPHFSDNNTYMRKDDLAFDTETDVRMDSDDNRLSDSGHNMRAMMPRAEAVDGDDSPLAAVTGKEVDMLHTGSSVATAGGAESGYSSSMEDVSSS
Briefly: co-IP; V5H6-tagged FRQ (wild type or mutant) pulled down with V5 agarose from Neurospora lysate (cultures in the light, 25 °C); 50 mM Hepes pH 7.4, 137 mM NaCl, 10% glycerol, 0.4% NP-40; 4 °C, 2 h; Western blot with FRQ, FRH, WC-1 and WC-2 antibodies. Background: Immunoblotting shows a protein as a band on a membrane.

Assay [2] has as its target T2, FRQ Δ564–603, V5H6-tagged (Neurospora crassa) (UniProt P19970).
T2 sequence: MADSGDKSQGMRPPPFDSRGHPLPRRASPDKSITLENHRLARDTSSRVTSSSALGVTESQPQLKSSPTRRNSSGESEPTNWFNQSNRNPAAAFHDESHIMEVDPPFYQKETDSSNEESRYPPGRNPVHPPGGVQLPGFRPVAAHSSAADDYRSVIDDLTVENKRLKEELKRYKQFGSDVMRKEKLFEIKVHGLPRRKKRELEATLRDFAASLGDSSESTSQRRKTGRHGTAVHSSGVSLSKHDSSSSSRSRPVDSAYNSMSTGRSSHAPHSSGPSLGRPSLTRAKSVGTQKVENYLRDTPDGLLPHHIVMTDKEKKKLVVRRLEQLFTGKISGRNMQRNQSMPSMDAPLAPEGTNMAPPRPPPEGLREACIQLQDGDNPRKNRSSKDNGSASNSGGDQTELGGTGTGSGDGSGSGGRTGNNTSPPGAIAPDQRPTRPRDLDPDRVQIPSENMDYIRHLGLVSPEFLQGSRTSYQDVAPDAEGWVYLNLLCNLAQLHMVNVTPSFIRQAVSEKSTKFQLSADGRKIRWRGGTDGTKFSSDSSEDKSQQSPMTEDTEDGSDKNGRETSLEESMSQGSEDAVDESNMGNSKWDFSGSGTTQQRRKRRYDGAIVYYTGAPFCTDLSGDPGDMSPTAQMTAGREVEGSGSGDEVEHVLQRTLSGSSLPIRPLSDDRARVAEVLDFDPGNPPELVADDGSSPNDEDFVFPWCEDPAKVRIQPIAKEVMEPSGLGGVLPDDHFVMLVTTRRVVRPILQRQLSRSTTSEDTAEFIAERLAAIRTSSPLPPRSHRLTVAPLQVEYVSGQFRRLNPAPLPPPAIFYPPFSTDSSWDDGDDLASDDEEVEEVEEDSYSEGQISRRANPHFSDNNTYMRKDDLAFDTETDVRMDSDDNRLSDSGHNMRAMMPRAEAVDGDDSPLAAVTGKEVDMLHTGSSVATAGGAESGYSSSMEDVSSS
The description is as above.

B1: White Collar-2 (WC-2) (protein, UniProt P78714 1-530)
chain: MSHGQPPPGSSMYGFGAMGMGSGMGSGMGSGMGTGMGTGMGTGMSASQMTSDPQDMMSLLDTSVFPGFDGMSMSLDVGDSMSNPFTPVSVPPPLPAGNAGPSHVGVCGGHGAPDQLFSPDDLIATSMSSAGPMIATPTTTTSGPSGGPSSGGGSTLTEFTKRRNWPAKVVEELQDWEHILDANGRIKHVSPSVEPLTGYKPPEIIDLFLRDLIHPDDVGVFTAELNEAIATGSQLRLFYRFRKKDGNWTIFETVGHAHIAAAKFAPNPQNQSPFCQAVFMMARPYPTKNAGLLDSFLEHKIENERLKRRIAELRREEQEEQEESHRTWRMSQEGRSDVTPSDDTATQMGMTPFYIPMNAQADVMMPPPSQPASSLNIALTRENLEGIAGSRPDSIREKMLRYEGNHADTIEMLTGLKYQEGERSHGITTGNASPTLIKGDAGIAIPLDRDPRTGEKKKKIKVAEEYVCTDCGTLDSPEWRKGPSGPKTLCNACGLRWAKKEKKKNANNNNNGGGIGGHNDIHTPMGDHMG
With B1, the binding result in assay [1] is listed as “binds”; in assay [2], “binds weakly”.

Source of the values: paper PMC10320511.
